Source: the supplement of paper PMC12217912
The list shows a part of the results. Sequences were assembled here from the parent chain. Values near 0.05 are background.

B1: TEV protease; numbered along this chain (parent)
chain: MGESLFKGPRDYNPISSSICHLTNESDGHTTSLYGIGFGPFIITNKHLFRRNNGTLVVQSLHGVFKVKDTTTLQQHLVDGRDMIIIRMPKDFPPFPQKLKFREPQREERICLVTTNFQTKSMSSMVSDTSCTFPSGDGIFWKHWIQTKDGQCGSPLVSTRDGFIVGIHSASNFTNTNNYFTSVPKNFMELLTNQEAQQWVSGWRLNADSVLWGGHKVFMVKPEEPFQPVKEATQL

Variants of: B1
Experiment: raw area under fraction-flipped curve 0-4 h after induction (AUC4h, not background-subtracted), DNA-recorder readout of cleavage of the substrate (dimensionless); higher = more cleavage of the substrate by the protease variant
Details: temperature: 34 °C; time window: 0-4 h after rhamnose induction
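Further: Bxb1 expression induced with 0.2% (w/v) L-rhamnose at OD600 near 0.5, cultures sampled hourly, flipped fraction per protease–substrate barcode pair counted by paired-end Illumina sequencing.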

| Variant | area with substrate ENTYFQS | area with substrate ENVYFQS | area with substrate ENWYFQS |
| --- | --- | --- | --- |
| MGESLFKGPRDYNPISSSICHLTNESDGHTTSLYGIGFGPFIITNKHLFRRNNGTLVVQSLHGVFKVKDTTTLQQHLVDGRDMIIIRMPKDFPPFPQKLKFREPQREERICLVTTNFQTKSMSSMVSDTSCTFPSGDGIFWKHWIQTKDGQCGSPLVSTRDGAIVGIHSASNFTNTNNYFTSVPKNFMELLTNQEAQQWVSGWRLNADSVLWGGHKVFMVKPEEPFQPVKEATQL [F163A] | 0.0708 | 0.0537 |  |
| MGESLFKGPRDYNPISSSICHLTNESDGHTTSLYGIGFGPFIITNKHLFRRNNGTLVVQSFHGVFKVKDTTTLQQHLVDGRDMIIIRMPKDFPPFPQKLKFREPQREERICLVTTNFQTKSMSSMVSDTSCTFPSGDGIFWKHWIQTKDGQCGSPLVSTRDGFIVGIHSASNFTNTNNYFTSVPKNFMELLTNQEAQQWVSGWRLNADSVLWGGHKVFMVKPEEPFQPVKEATQL [L61F] |  | 0.0712 | 0.0588 |
| MGESLFKGPRDYNPISSSICHLTNESDGHTTSLYGIGFGPFIITNKHLFRRNNGTLVVQSLHGVFKVKDTTTLQQHLVDGRDMIIIRMPKDFPPFPQKLKFREPQREERICLVTTNFQTKSMSSMVSDTSCTFPSGDGIFWKHWIQTKDGQCGSPLVSTRDGFIVGIHSISNFTNTNNYFTSVPKNFMELLTNQEAQQWVSGWRLNADSVLWGGHKVFMVKPEEPFQPVKEATQL [A170I] |  | 0.0646 |  |
| MGESLFKGPRDYNPISSSICHLTNESDGHTTSLYGIGFGPFIITNKHLFRRNNGTLVVQSLHGVFKVKDTTTLQQHLVDGPDMIIIRMPKDFPPFPQKLKFREPQREERICLVTTNFQTKSMSSMVSDTSCTFPSGDGIFWKHWIQTKDGQCGSPLVSTRDGFIVGIHSASNFTNTNNYFTSVPKNFMELLTNQEAQQWVSGWRLNADSVLWGGHKVFMVKPEEPFQPVKEATQL [R81P] |  |  | 0.0383 |
